The campaign covered roughly 420,000 compounds. About 50,000 (12%) were called active. The shares of active, inactive and inconclusive entries below differ from those in the screen. The call rests on the fitted dose curve; in most records, active means well fitted inhibition curve with a large enough effect; inconclusive means small, poorly fitted or top-dose-only effect; inactive means flat fitted curve, though single readings scatter. No potency is given beside an inconclusive call; the fits are too rough.
Assay: qHTS for Inhibitors of human tyrosyl-DNA phosphodiesterase 1 (TDP1): qHTS in cells in presence of CPT; further: nearly all actives have a fitted effect of over 55% in size
Settings: chicken DT40 Tdp1-/-;hTDP1 cells + 20 nM CPT, ATP luminescence, 48 h; activity change, negative = growth inhibition: at 46.2 µM (top of the series) unless noted
Outline: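 Chicken DT40 Tdp1-/- cells complemented with human TDP1, 400 cells/well, exposed to compounds plus 20 nM camptothecin for at least 48 h at 37 C; viability read as ATP content by CellTiter-Glo luminescence.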
On the % scale 0 is the no-effect control and ±100 the full control effect; potency means the concentration at half of the fitted maximal effect; tags describe the fitted curve by direction and shape.

Structure (SMILES) | Potency | activity change, negative = growth inhibition
COc1ccc(C)cc1NC(=O)CSc1nc2scc(C)c2c(=O)[nH]1 | inconclusive [inhibitor, single point] | –
CC(=O)N1CCc2c(sc3c2c(=O)n(-c2ccccc2)c(=O)n3CC(=O)c2ccc(Cl)cc2)C1 | inactive | –
CC(C)Cc1ccc(CN2CCC(n3nccc3NC(=O)C3CCCC3)CC2)cc1 | inconclusive [inhibitor, single point] | –
Oc1ccc(Br)cc1-c1ccnn1-c1ccccc1 | active: 20.6 µM | –
Cc1ccc(S(=O)(=O)N2c3ccccc3OCC2C(C)(C)C)cc1 (stereo unspecified) | inconclusive [inhibitor, single point] | –
Cc1ccc(-n2nnnc2SCC(=O)NC2CC2)cc1C | inactive | –
COc1ccccc1CNc1nc2cc(-c3ccsc3)sc2c(=O)n1C | inconclusive [inhibitor, single point] | –
CN(C(=O)CN1CCN(c2ccc([N+](=O)[O-])cn2)CC1)c1ccccc1 | inactive | –
O=C(COC(=O)/C=C/c1ccc(OC(F)F)cc1)Nc1cccc(S(=O)(=O)N2CCOCC2)c1 | inconclusive [inhibitor, single point] | –
CC1CCN(S(=O)(=O)c2ccc(NC(=O)C3CCN(C(=O)c4ccco4)CC3)cc2)CC1 | inconclusive [inhibitor, single point] | –
CC1(C(=O)Nc2ccc3c(c2)OCO3)CCN1Cc1csc2ccccc12 (stereo unspecified) | active: 23.1 µM | –
O=C(NCCN1CCOCC1)c1cccc(NS(=O)(=O)c2ccc(Br)cc2)c1 | inactive | –
COc1ccccc1-c1cnc(C(O)c2ccc(C)cc2C)[nH]1 (stereo unspecified) | inactive | –
CC(=O)OC1CCC2(C)C3CCC4(C)C(CC5CCCCC54C(C)=O)C3CC(=O)[C@@]2(O)C1 (stereo partly specified) | inactive | –
O=C(CNc1cccc(C(F)(F)F)c1)Nc1cccc(S(=O)(=O)N2CCCC2)c1 | active: 13 µM | –
CC(=O)N1CCOc2cc(S(=O)(=O)NCc3ccccc3Cl)c(C)cc21 | inactive | –
O=C(c1cccc(Cl)c1)N1CCN(c2ncccn2)CC1 | inactive | –
O=C(CN1CCCc2ccccc21)N/N=C/c1ccc(O)cc1O | inconclusive [inhibitor, single point] | –
COC(=O)c1cc([N+](=O)[O-])ccc1N1CCN(Cc2ccccc2)CC1 | – | inconclusive: -30.5% [inhibitor]
CCCCCCCCN1N=N[C@H]2[C@H]1[C@@H]1C[C@H]2N(C(=O)OC(C)(C)C)O1 | inconclusive [inhibitor, single point] | –
CC1CCC(NC(=O)CN2CCCN(Cc3ccc(F)cc3Cl)C2=O)CC1 (stereo unspecified) | inconclusive [inhibitor, single point] | –

Reference: PubChem BioAssay AID686979 (National Center for Advancing Translational Sciences (NCATS), 2013)
